The shares of active, inactive and inconclusive entries below differ from those in the screen. Potencies of inconclusive entries are left out as doubtful fits. The source made the active and inactive calls. Calls come from the whole dose curve; as a rule, active = well fitted cell-killing curve with a large enough effect in the repeat runs; inconclusive = weak or mixed curves, or effect the other way; inactive = flat fitted curve, though single readings scatter.
experiment: qHTS assay to identify small molecule antagonists of the estrogen receptor alpha (ER-alpha) signaling pathway using the BG1 cell line - cell viability counter screen (AID 743081); settings: BG1Luc4E2 viability, CellTiter-Fluor, 22 h; activity change, negative = cytotoxicity: at 70.3 µM (top of the series);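 note: compound given together with 17beta-estradiol as the ER stimulus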
% is set by controls: 0 for no effect and ±100 for the full control effect; potency is the fitted concentration of half-maximal effect; tags give direction and shape of the fitted curve.
Note: nearly all actives have a fitted effect of over 45% in size.

Q: For ON=C1CCCCC1, which Potency is on record?
A: inactive

Q: Which Potency does the source give for O=C1N(c2ccccc2)c2ccccc2C1(Cc1ccncc1)Cc1ccncc1 here?
A: inactive

Q: Which Potency does the source give for CN(C)Cc1cc(CN(C)C)c(O)c(CN(C)C)c1 here?
A: inactive

Q: For CN(C)C/C=C(/c1ccc(Br)cc1)c1cccnc1, which activity change, negative = cytotoxicity is on record?
A: inconclusive: -24.7%

Q: Which Potency does the source give for CC(Cl)COP(=O)(OCC(C)Cl)OCC(C)Cl (stereo not given) here?
A: inactive

Q: Which Potency does the source give for O=C1Nc2ccc([N+](=O)[O-])cc2C1=O here?
A: inconclusive [cytotoxic, single point]

Q: For CN1CCC[C@@H]1Cc1c[nH]c2ccc(CCS(=O)(=O)c3ccccc3)cc12, which Potency is on record?
A: inconclusive [rising, single point]

Q: With OC(C#CCN1CCCC1)(c1ccccc1)c1ccccc1 as the molecule, how does the Potency read?
A: inconclusive [cytotoxic, partial curve, poor fit]

Q: For S=C([S-])NCCNC(=S)[S-].[Mn+2], which Potency is on record?
A: inconclusive [rising, partial curve, poor fit]

Q: With Cc1cc(O)c2c(c1)C(=O)c1cccc(O)c1C2=O as the molecule, how does the Potency read?
A: inconclusive [cytotoxic]

Q: Which Potency does the source give for CC[C@H](C)C(=O)O[C@H]1C[C@H](O)C=C2C=C[C@H](C)[C@H](CC[C@@H](O)C[C@@H](O)CC(=O)O)[C@H]21 here?
A: inactive

Q: With CC(=O)CC(c1ccc([N+](=O)[O-])cc1)c1c(O)c2ccccc2oc1=O (stereo not given) as the molecule, how does the Potency read?
A: inactive

Q: For CCCCCOC(=O)CCC, which Potency is on record?
A: inactive

Q: Which Potency does the source give for CN(C)C(=O)CNC(=O)Cc1ccccc1 here?
A: inconclusive [cytotoxic, single point]

Q: Which Potency does the source give for COC(c1ccccc1)(c1ccccc1)[C@H](Oc1nc(C)cc(C)n1)C(=O)O here?
A: inconclusive [rising, full curve, poor fit]

Q: Which Potency does the source give for OCCc1ccccn1 here?
A: inactive

Q: With O=C(CCN1CCN2CCCC2C1)N1c2ccccc2Sc2ccc(Cl)cc21 (stereo not given) as the molecule, how does the Potency read?
A: inconclusive [cytotoxic, partial curve]

Q: Which Potency does the source give for O=C(CO)[C@@H](O)[C@H](O)[C@H](O)CO here?
A: inconclusive [cytotoxic, partial curve, poor fit]

Q: Which Potency does the source give for N[C@@H](CCC(=O)O)C(=O)O here?
A: inconclusive [rising, partial curve]

Q: For CCCCCCCCOC(=O)CCCCCCCCC(=O)OCCCCCCCC, which Potency is on record?
A: inactive

Q: For NC1CCN(c2cccc(Cl)n2)CC1, which activity change, negative = cytotoxicity is on record?
A: inconclusive: -5.53%

Q: With CCn1nc(Cc2ccccc2)cc1C1CCN(C[C@H]2C[C@H](N(C)[C@@H](C(=O)O)C(C)C)C[C@@H]2c2cccc(F)c2)CC1 as the molecule, how does the Potency read?
A: inconclusive [cytotoxic, partial curve, poor fit]

Q: With CC(COc1ccccc1)NC(C)C(O)c1ccc(O)cc1 (stereo not given) as the molecule, how does the Potency read?
A: inactive

Q: Which Potency does the source give for CC1CCc2c(N3CCC(O)CC3)c(F)cc3c(=O)c(C(=O)O)cn1c23 (stereo not given) here?
A: inactive

Q: With O=C(O)C1=NN(c2ccc(S(=O)(=O)O)cc2)C(=O)C1 as the molecule, how does the Potency read?
A: inactive

Q: For COC(=O)c1cccnc1, which Potency is on record?
A: inactive

Q: With CN1CCC(=C2c3ccccc3CC(=O)c3sccc32)CC1 as the molecule, how does the Potency read?
A: inconclusive [cytotoxic, partial curve, poor fit]

Q: Which Potency does the source give for COc1c(Cl)ccc(Cl)c1C(=O)O here?
A: inconclusive [rising, partial curve, poor fit]

Q: Which Potency does the source give for CC(=O)OC(C)OC(C)=O here?
A: inactive

Q: Which Potency does the source give for NC[C@H](O)c1ccc(O)c(O)c1 here?
A: inconclusive [cytotoxic]

Q: With Nc1ccccc1[N+](=O)[O-] as the molecule, how does the Potency read?
A: inconclusive [cytotoxic, partial curve, poor fit]

Q: For CCCCCCCCNC, which Potency is on record?
A: inactive

Q: Which Potency does the source give for CN(C)C(=O)NC1(c2ccccc2)CCN(CCC[C@]2(c3ccc(Cl)c(Cl)c3)CCCN(C(=O)c3ccccc3)C2)CC1 here?
A: inconclusive [cytotoxic, partial curve]

Q: Which Potency does the source give for O=C(c1ccccc1)c1ccccc1 here?
A: inconclusive [cytotoxic, single point] and inactive

Q: Which Potency does the source give for C[C@@H]1C[C@H]2[C@@H]3CCC4=CC(=O)C=C[C@]4(C)[C@@]3(F)[C@@H](O)C[C@]2(C)[C@H]1C(=O)CO here?
A: inactive

Q: With O=C=NC1CCC(CC2CCC(N=C=O)CC2)CC1 (stereo not given) as the molecule, how does the Potency read?
A: inconclusive [cytotoxic, partial curve]

Q: For O=C(O)c1c2ccccc2cc2ccccc12, which Potency is on record?
A: inactive

Q: Which Potency does the source give for N#CCc1cccc(C(F)(F)F)c1 here?
A: inactive

Q: With CN(C)C(=O)NC1(c2ccccc2)CCN(CC[C@@]2(c3ccc(F)c(F)c3)CN(C(=O)c3ccccc3)CCO2)CC1 as the molecule, how does the Potency read?
A: inconclusive [cytotoxic, partial curve, poor fit]

Q: Which Potency does the source give for CCCCCCCCCCCCCC(=O)O here?
A: inactive

experiment: qHTS assay to identify small molecule that activate the aryl hydrocarbon receptor (AhR) signaling pathway - cell viability counter screen (AID 743086); settings: HepG2-AhR-luc viability, CellTiter-Fluor, 24 h; series mostly up to 70.3 µM
Outline: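 Cytotoxicity counter screen: CellTiter-Fluor signal (30 min, 37 C) in 4000 HepG2 cells/well carrying the DRE-luciferase reporter, following 24 h compound exposure at 37 C.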

Q: Which Potency does the source give for CN(C)C/C=C(/c1ccc(Br)cc1)c1cccnc1 here?
A: inconclusive [falling, partial curve, poor fit]

Q: For O=C1Nc2ccc([N+](=O)[O-])cc2C1=O, which Potency is on record?
A: inconclusive [falling, single point]

Q: With CN1CCC[C@@H]1Cc1c[nH]c2ccc(CCS(=O)(=O)c3ccccc3)cc12 as the molecule, how does the Potency read?
A: inconclusive [falling, partial curve]

Q: With S=C([S-])NCCNC(=S)[S-].[Mn+2] as the molecule, how does the Potency read?
A: inactive

Q: For O=C(CCN1CCN2CCCC2C1)N1c2ccccc2Sc2ccc(Cl)cc21 (stereo not given), which Potency is on record?
A: active: 23.7 µM

Q: Which Potency does the source give for CCn1nc(Cc2ccccc2)cc1C1CCN(C[C@H]2C[C@H](N(C)[C@@H](C(=O)O)C(C)C)C[C@@H]2c2cccc(F)c2)CC1 here?
A: inconclusive [falling, partial curve]

Q: Which Potency does the source give for Nc1ccccc1[N+](=O)[O-] here?
A: inconclusive [falling, partial curve]

Q: Which Potency does the source give for CN(C)C(=O)NC1(c2ccccc2)CCN(CCC[C@]2(c3ccc(Cl)c(Cl)c3)CCCN(C(=O)c3ccccc3)C2)CC1 here?
A: inconclusive [falling, single point]

Q: For O=C(c1ccccc1)c1ccccc1, which Potency is on record?
A: inconclusive [rising, partial curve, poor fit]

Q: For CN(C)C(=O)NC1(c2ccccc2)CCN(CC[C@@]2(c3ccc(F)c(F)c3)CN(C(=O)c3ccccc3)CCO2)CC1, which Potency is on record?
A: inconclusive [falling, single point]

Reference: PubChem BioAssay (Tox21)
